PubChem BioAssay AID759 (NMMLSC, 2007)
About 270 (0.14%) of roughly 190,000 compounds were called active. The inconclusive results got no clear call from the source; some entries with a clear call stand among them for comparison.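 The calls were made as follows: active = GTP binding activity at least 20% away from the 100% baseline, either lowered as inhibitor or raised as activator; inconclusive = flagged as likely green fluorescent, judged across all proteins in the well; inactive = the rest.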

What follows are compounds tested against GTPase HRas (Homo sapiens) (UniProt P01112) (assay: HRas wt fluorescent GTP binding changes, either direction – biochemical, wildtype, bead-based flow cytometry, multiplex, primary screen (AID 759;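 also: 0% = unlabeled GTP competition control and 100% = no-compound control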)). Settings: GST-Ras wt beads, Bodipy-FL-GTP binding, at 10 µM, actives lie on both sides.
Chain of UniProt P01112 (P01112 whole entry, looked up): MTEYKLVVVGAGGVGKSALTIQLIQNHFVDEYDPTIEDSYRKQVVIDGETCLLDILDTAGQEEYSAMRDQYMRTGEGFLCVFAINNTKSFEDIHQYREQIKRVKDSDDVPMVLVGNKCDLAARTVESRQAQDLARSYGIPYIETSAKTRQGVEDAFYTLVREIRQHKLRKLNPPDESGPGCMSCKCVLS

SMILES	GTP binding activity
CCN(CC)S(=O)(=O)c1ccc2oc(C(=O)N3CCCCCC3)c(C)c2c1	inactive: 109%
COc1cc2[nH]c(=O)n(CCC(=O)NCCCN3CCN(c4ccccc4F)CC3)c(=O)c2cc1OC	inconclusive: 97%
COc1ccc(C(=O)N2CCOC2CNC(=O)C(=O)NCc2ccc(Cl)cc2)cc1 (configuration not stated)	inconclusive: 95%
O=P(O)(O)C(O)C(F)(F)C(F)(F)C(F)(F)C(F)F (configuration not stated)	inconclusive: 103%
Cc1ccc(NC(=O)c2ccco2)c(NC(=O)c2cccs2)c1	inconclusive: 106%
COc1cc(NS(=O)(=O)c2ccc(N)cc2)nc(OC)n1	inactive: 101%
CCN(CC)S(=O)(=O)c1ccc2c(c1)nc(CCC(=O)Nc1ccccc1Cc1ccccc1)n2CC	inconclusive: 92%
C/C=N/NC(=O)CCNC(=O)c1ccccc1	inactive: 98%
COc1cc(-c2nn3c(-c4ccccn4)nnc3s2)cc(OC)c1OC	inconclusive: 94%
O=C(NN1S(=O)(=O)c2ccccc2S1(=O)=O)c1ccc(Br)cc1	inconclusive: 92%
C=C(C)Cn1c(C)cc(C)c(S(=O)(=O)c2cccc(C)c2)c1=O	inactive: 99%
CCC(C)(C)NC(=O)c1ccc2c(c1)N(CC(=O)OC)C(=O)C(C)(C)O2	inactive: 103%
O=C(Nc1ccccc1C(F)(F)F)N1CCN(c2ccccn2)CC1	inactive: 95%
O=C(COC(=O)/C=C/c1cccc([N+](=O)[O-])c1)NCc1ccc2c(c1)OCO2	inactive: 88%
CC(C)CC(=O)Nc1nnn(C)n1	inconclusive: 106%
CCOC(=O)/C(=C\Nc1ccccc1C(F)(F)F)Sc1ncc(C(F)(F)F)cc1Cl	inconclusive: 102%
Cn1nccc1C(=O)N1CCc2ccccc21	inconclusive: 102%
COc1ccc(N2CCC(CNC(=S)Nc3cccc(OC)c3)C2)cc1 (configuration not stated)	inconclusive: 102%
c1ccc(-c2nc(NCc3cccnc3)c3oc4ccccc4c3n2)cc1	inconclusive: 95%
CC1(C)Cc2c(sc3nc(SCC(=O)NCc4ccco4)n(-c4ccccc4)c(=O)c23)CS1	inconclusive: 108%
CC[n+]1c(C)sc2c3ccsc3ccc21	inconclusive: 90%
O=C(O)c1ccc2cc[nH]c2c1	inconclusive: 95%
Cc1c2cc(O)c(=O)cc-2oc2cc(O)c(O)cc12	inconclusive: 906%

SMILES	GTP binding activity
Cc1ccc(C)c(S(=O)(=O)NCc2ccc(C(=O)NCc3ccccn3)cc2)c1	inconclusive: 102%
CSCC[C@H](NC(=O)OC(C)(C)C)C(=O)N/N=C/c1cc2ccc(C)cc2nc1Cl	inconclusive: 98%
O=C(O)c1cc(C(=O)O)cc(-c2ccc(/C=c3/sc4nc5ccccc5n4c3=O)o2)c1	inactive: 82%
O=c1[nH]c(N/N=C\c2ccc3c(c2)OCO3)nc2ccccc12	active: 80%
CCOC(=O)CN1C(=O)CN(c2ccc(C)c(C)c2)C1=O	inconclusive: 103%
COc1ccc2c(c1)c(=O)oc1c(C)c(OCc3cc(C(=O)O)oc3C)ccc12	inconclusive: 90%
CCN(CC)c1ccc(/C=C(\C#N)C(=O)c2ccc(Br)cc2)cc1	inconclusive: 150%
O=C1c2cccc3cccc(c23)C(=O)N1CCCCCc1n[nH]c(=S)o1	inconclusive: 79%
COc1ccc(S(=O)(=O)N(CC(=O)N/N=C/c2cccs2)c2cc(C)cc(C)c2)cc1OC	inactive: 100%
CC1CCC2(CC1)NC(=O)N(Cc1cccc(C(F)(F)F)c1)C2=O (configuration not stated)	inconclusive: 93%
Cc1nnsc1S(=O)(=O)Cc1ccccc1Cl	inconclusive: 109%
CN(C)S(=O)(=O)c1ccc(Cl)c(NC(=O)c2ccncc2)c1	inactive: 101%
COC(=O)c1ccc(CO/N=C/c2ccc(OC)cc2)o1	inactive: 98%
Cc1cccc(OCC(=O)OC2CCN(C)CC2)c1	inconclusive: 102%
Clc1ccc(-c2csc(N3CCN(c4ccccc4)CC3)n2)cc1	inconclusive: 89%
O=C(CC(C(=O)O)c1c[nH]c2ccccc12)c1ccccc1 (configuration not stated)	inconclusive: 94%
Cn1cc(/C=C2\SC(=S)N(NC(=O)c3ccccc3Cl)C2=O)c2ccccc21	inconclusive: 96%
Cc1ccc(NC(=O)C(=O)c2c(-c3ccccc3)cc3ccccn23)cc1S(=O)(=O)N1CCOCC1	inconclusive: 91%
Cn1cnnc1SCC(=O)Nc1nc(-c2ccc(F)cc2)cs1	inconclusive: 90%
S=C(N/N=C/c1ccc2ncccc2c1)Nc1ccccc1	inconclusive: 91%
CCC/C=N/NC(=O)c1cccc(Br)c1	inactive: 96%
COc1ccc(C(=O)CN2CCN(c3ccc(F)cc3)CC2)cc1OC	inconclusive: 104%
O=C(O)CSC(NC(=O)c1cccnc1)(C(F)(F)F)C(F)(F)F	inconclusive: 101%

SMILES	GTP binding activity
CCOCC(=O)Nc1ccc([N+](=O)[O-])cc1C	inactive: 98%
CN(C)C(CNC(=O)CNC(=O)c1ccc(Br)cc1)c1ccccc1 (configuration not stated)	inactive: 96%
CS(=O)(=O)N1CCC(C(=O)Nc2cccc(Cl)c2)CC1	inconclusive: 94%
O=C(/C=C/c1ccc(Cl)cc1)NC(=S)Nc1ccc(NC(=O)c2ccco2)cc1	inactive: 96%
CC(OC(=O)CCc1nc2ccccc2[nH]c1=O)c1ccccc1 (configuration not stated)	inactive: 97%
CC(=O)C1=C(C)NC2(O)c3ccccc3C(=O)C12O (configuration not stated)	inconclusive: 94%
O=C(Cn1nnc2ccccc21)c1cccc([N+](=O)[O-])c1	inconclusive: 104%
COc1ccccc1CNc1n[nH]c(NCc2ccccc2OC)n1	inconclusive: 104%
CC(C)CNC(=O)c1cccc(NC(=O)C(C)C)c1	inactive: 100%
CCOC(=O)C1=NN(C(=O)COc2ccccc2)C(O)(c2ccc(Br)cc2)C1 (configuration not stated)	inconclusive: 95%
CCOc1ncccc1C(=O)Nc1ccc(OC)c(S(=O)(=O)N2CCCCC2)c1	inconclusive: 93%
Cc1ccc(S(=O)(=O)/N=C2/C=C(Sc3ncn[nH]3)C(=O)c3ccccc32)c(C)c1	inconclusive: 92%
CN(C)/C=C1\C(=O)N(c2ccc(Cl)cc2)CS1(=O)=O	inconclusive: 103%
COc1ccc(-n2cnc3ccccc32)cc1	inconclusive: 105%
CCCS(=O)(=O)c1nnnn1-c1cccc(OC)c1	inactive: 91%
COc1cc(N2CCCC2)c(OC)cc1/C=C(/C#N)c1ccc(F)cc1	inconclusive: 114%
COCCn1c(SCC(=O)N2CCCCC2)nc2ccccc2c1=O	inconclusive: 109%
Cc1ccc(C(=O)C(C)OC(=O)c2cc3cc([N+](=O)[O-])ccc3oc2=O)cc1 (configuration not stated)	inconclusive: 86%
CCOC(=O)CSc1ccc2nnc(-c3cccs3)n2n1	inactive: 94%
O=C1CC(c2cc([N+](=O)[O-])ccc2Cl)c2c(ccc3ccccc23)N1 (configuration not stated)	inactive: 101%
CC(C)NC(=O)C12CC3CC(C1)CC(n1cnc(Cl)n1)(C3)C2	inactive: 106%
O=C(NCCc1c[nH]c2ccccc12)/C(=C/c1cccnc1)NC(=O)c1ccco1	inactive: 97%
O=C(NCCO)/C(=C\c1cccs1)NC(=O)c1cccs1	inconclusive: 102%

SMILES	GTP binding activity
COC(=O)c1c(N)sc(C(=O)N2CCOCC2)c1C	inconclusive: 103%
c1ccc2[nH]c(CSc3nc4ccccc4s3)nc2c1	inconclusive: 106%
O=C(Cn1nc2ccccc2n1)N/N=C/c1cc([N+](=O)[O-])ccc1O	active: 73%
Cc1ccc(/C([O-])=C(/C(=S)NCc2ccccc2)[n+]2cccc(CO)c2)cc1[N+](=O)[O-]	inconclusive: 93%
COc1ccccc1CNc1nc(S(=O)(=O)c2ccccc2)c(Cl)s1	inconclusive: 102%
CC(=O)N1CCc2cc(S(=O)(=O)NC3CCCc4ccccc43)ccc21 (configuration not stated)	inconclusive: 98%
O=C(CCS(=O)(=O)c1cc(Br)cc2c1N(C(=O)C1CC1)CC2)NCc1ccco1	inconclusive: 105%
COc1cc(C(=O)Nc2ccncc2)cc(OC)c1OC	inconclusive: 104%
CN(CCc1cn[nH]c1)Cc1nc(C(c2ccccc2)c2ccccc2)no1	inconclusive: 94%
COc1ccc(-n2nnnc2SCc2nc(N)nc(N3CCOCC3)n2)cc1	inconclusive: 98%
Cc1ccc(CNC(=O)c2ccccc2N)cc1	inconclusive: 104%
CO/N=C/c1ccc(N2CCCC2)c([N+](=O)[O-])c1	inconclusive: 90%
COc1ccc(/C=N/NC(=O)CN(Cc2ccccc2)S(=O)(=O)c2ccc3c(c2)OCCO3)cc1	inactive: 91%
COc1cc(C(=O)Nc2cc(C)ccn2)cc(OC)c1OC	inconclusive: 102%
Cc1cc(-c2ccccc2)nc(SCC(=O)N2CCCC2)n1	inactive: 98%
O=C(NCCc1c[nH]c2ccccc12)C1CCC(Cn2c(=S)[nH]c3ccccc3c2=O)CC1 (configuration not stated)	inconclusive: 103%
COc1ccccc1NC(=O)CN(c1ccc(C)cc1)S(=O)(=O)c1c(C)n[nH]c1C	inactive: 99%
O=C(NCc1ccccn1)C(=O)Nc1nc(C23CC4CC(CC(C4)C2)C3)cs1	inactive: 97%
CCc1ccc(OCCCC(=O)O)c(Br)c1	inconclusive: 105%
Cc1cc(C(=O)Nc2c[nH]c(=O)[nH]c2=O)ccc1[N+](=O)[O-]	inconclusive: 91%
Cn1c(NC(=O)c2cc(-c3ccc4c(c3)OCO4)nc3ccccc23)cc(=O)n(C)c1=O	inconclusive: 109%
COc1ccc(NC(=O)c2ccc3c(=O)n(-c4ccc(OC)cc4OC)c(=S)[nH]c3c2)c(OC)c1	inconclusive: 91%
CCNC(=S)Nc1ccc(S(=O)(=O)Nc2cc(C)nc(C)n2)cc1	inactive: 100%
